No constants are given. Whether binding was seen depends on the method and setting. For part of these data: Binding seen in cells or lysates may run through a third protein. Some entries that bind do so weakly or less than the wild type. Where a sequence is shown, tags or fusion partners need not be part of it.
Tests used:
[1] = biological target: GFP-tagged CSB, full-length construct, T1447A (human) (UniProt Q03468); assay: co-IP; GFP-Trap magnetic agarose on RIPA lysates (with Benzonase) of HEK293 FT cells transfected with GFP-tagged SNM1A or CSB; washes with 150, 250 and 500 mM NaCl; Western blot
[2] = biological target: GFP-tagged CSB, full-length construct, WT (human) (UniProt Q03468); assay: as above
[3] = biological target: N-His-ZB-CSB-Avi-Biotin (T1447A), full length (human) (UniProt Q03468); assay: SPR; multi-cycle; full-length CSB immobilised via biotinylated C-terminal Avi tag; untagged SNM1A 698-1040 as analyte, 90 s injection; 20 mM HEPES pH 7.5, 500 mM NaCl, 0.5 mM TCEP, 0.01% TWEEN-20; both purified

Sequences of proteins named here, by UniProt entry; tags and fusion partners are left off. A change or cut given only in a name is not applied to a line headed by its entry.
UniProt Q03468: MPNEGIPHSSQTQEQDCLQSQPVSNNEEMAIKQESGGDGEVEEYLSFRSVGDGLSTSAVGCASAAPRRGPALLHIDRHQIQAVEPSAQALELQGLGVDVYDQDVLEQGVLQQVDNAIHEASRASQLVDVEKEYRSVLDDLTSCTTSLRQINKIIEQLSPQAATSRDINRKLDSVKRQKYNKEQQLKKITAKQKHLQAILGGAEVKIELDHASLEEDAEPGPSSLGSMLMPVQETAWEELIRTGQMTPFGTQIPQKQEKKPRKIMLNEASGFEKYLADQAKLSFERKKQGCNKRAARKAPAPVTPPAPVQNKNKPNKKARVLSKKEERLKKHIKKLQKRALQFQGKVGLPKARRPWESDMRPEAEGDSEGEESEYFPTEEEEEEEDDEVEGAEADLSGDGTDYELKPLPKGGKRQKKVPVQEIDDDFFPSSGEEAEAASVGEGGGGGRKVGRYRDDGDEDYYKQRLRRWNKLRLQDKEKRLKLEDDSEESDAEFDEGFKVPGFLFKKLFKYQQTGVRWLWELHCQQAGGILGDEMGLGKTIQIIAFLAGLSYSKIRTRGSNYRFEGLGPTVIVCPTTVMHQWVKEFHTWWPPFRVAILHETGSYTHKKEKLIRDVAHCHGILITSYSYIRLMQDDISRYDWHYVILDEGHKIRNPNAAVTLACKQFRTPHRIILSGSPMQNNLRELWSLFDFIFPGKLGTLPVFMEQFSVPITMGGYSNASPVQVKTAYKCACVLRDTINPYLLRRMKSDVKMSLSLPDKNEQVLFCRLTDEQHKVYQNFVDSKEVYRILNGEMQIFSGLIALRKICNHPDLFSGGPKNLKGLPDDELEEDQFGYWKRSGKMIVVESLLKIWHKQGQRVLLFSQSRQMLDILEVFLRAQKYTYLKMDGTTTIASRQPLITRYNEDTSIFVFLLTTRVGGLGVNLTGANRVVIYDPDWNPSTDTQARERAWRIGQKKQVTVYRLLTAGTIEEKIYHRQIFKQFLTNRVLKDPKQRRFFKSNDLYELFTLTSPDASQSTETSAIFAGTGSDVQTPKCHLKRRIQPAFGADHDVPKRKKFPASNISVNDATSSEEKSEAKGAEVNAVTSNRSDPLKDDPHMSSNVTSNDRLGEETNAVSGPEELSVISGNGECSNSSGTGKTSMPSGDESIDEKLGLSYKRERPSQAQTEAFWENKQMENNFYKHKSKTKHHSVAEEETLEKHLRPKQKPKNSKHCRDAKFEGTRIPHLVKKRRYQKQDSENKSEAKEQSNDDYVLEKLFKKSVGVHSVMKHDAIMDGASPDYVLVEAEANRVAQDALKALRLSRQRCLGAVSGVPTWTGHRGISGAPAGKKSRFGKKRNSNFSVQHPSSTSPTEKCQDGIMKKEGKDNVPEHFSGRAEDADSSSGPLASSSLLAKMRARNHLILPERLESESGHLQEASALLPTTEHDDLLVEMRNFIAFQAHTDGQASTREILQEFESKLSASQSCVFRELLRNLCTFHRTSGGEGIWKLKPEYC

B1: SNM1A tested in the co-immunoprecipitates of GFP-CSB (protein, UniProt Q6PJP8 1-1040)
chain: MLEDISEEDIWEYKSKRKPKRVDPNNGSKNILKSVEKATDGKYQSKRSRNRKRAAEAKEVKDHEVPLGNAGCQTSVASSQNSSCGDGIQQTQDKETTPGKLCRTQKSQHVSPKIRPVYDGYCPNCQMPFSSLIGQTPRWHVFECLDSPPRSETECPDGLLCTSTIPFHYKRYTHFLLAQSRAGDHPFSSPSPASGGSFSETKSGVLCSLEERWSSYQNQTDNSVSNDPLLMTQYFKKSPSLTEASEKISTHIQTSQQALQFTDFVENDKLVGVALRLANNSEHINLPLPENDFSDCEISYSPLQSDEDTHDIDEKPDDSQEQLFFTESSKDGSLEEDDDSCGFFKKRHGPLLKDQDESCPKVNSFLTRDKYDEGLYRFNSLNDLSQPISQNNESTLPYDLACTGGDFVLFPPALAGKLAASVHQATKAKPDEPEFHSAQSNKQKQVIEESSVYNQVSLPLVKSLMLKPFESQVEGYLSSQPTQNTIRKLSSENLNAKNNTNSACFCRKALEGVPVGKATILNTENLSSTPAPKYLKILPSGLKYNARHPSTKVMKQMDIGVYFGLPPKRKEEKLLGESALEGINLNPVPSPNQKRSSQCKRKAEKSLSDLEFDASTLHESQLSVELSSERSQRQKKRCRKSNSLQEGACQKRSDHLINTESEAVNLSKVKVFTKSAHGGLQRGNKKIPESSNVGGSRKKTCPFYKKIPGTGFTVDAFQYGVVEGCTAYFLTHFHSDHYAGLSKHFTFPVYCSEITGNLLKNKLHVQEQYIHPLPLDTECIVNGVKVVLLDANHCPGAVMILFYLPNGTVILHTGDFRADPSMERSLLADQKVHMLYLDTTYCSPEYTFPSQQEVIRFAINTAFEAVTLNPHALVVCGTYSIGKEKVFLAIADVLGSKVGMSQEKYKTLQCLNIPEINSLITTDMCSSLVHLLPMMQINFKGLQSHLKKCGGKYNQILAFRPTGWTHSNKFTRIADVIPQTKGNISIYGIPYSEHSSYLEMKRFVQWLKPQKIIPTVNVGTWKSRSTMEKYFREWKLEAGY
B1 was tested, and the binding [1] was “no binding” and the binding [2] was “binds”.

B2: SNM1A (WT, a.a. 698-1040, untagged) (domain or fragment, UniProt Q6PJP8 698-1040)
chain: KKTCPFYKKIPGTGFTVDAFQYGVVEGCTAYFLTHFHSDHYAGLSKHFTFPVYCSEITGNLLKNKLHVQEQYIHPLPLDTECIVNGVKVVLLDANHCPGAVMILFYLPNGTVILHTGDFRADPSMERSLLADQKVHMLYLDTTYCSPEYTFPSQQEVIRFAINTAFEAVTLNPHALVVCGTYSIGKEKVFLAIADVLGSKVGMSQEKYKTLQCLNIPEINSLITTDMCSSLVHLLPMMQINFKGLQSHLKKCGGKYNQILAFRPTGWTHSNKFTRIADVIPQTKGNISIYGIPYSEHSSYLEMKRFVQWLKPQKIIPTVNVGTWKSRSTMEKYFREWKLEAGY
For B2, the binding [3] was “no binding”.
